# Source: the supplement of paper PMC4166925
# ± gives the standard deviation of the averaged measurements. Over roughly 33,000 sequences, “E-score (dimensionless, -0.5 to 0.5)” has its median near -0.049; the highest 2% begin near 0.37. This is one part of the list.
# Tested on: T1, PmTbr T-box DNA-binding domain (GST fusion)
# T1 sequence: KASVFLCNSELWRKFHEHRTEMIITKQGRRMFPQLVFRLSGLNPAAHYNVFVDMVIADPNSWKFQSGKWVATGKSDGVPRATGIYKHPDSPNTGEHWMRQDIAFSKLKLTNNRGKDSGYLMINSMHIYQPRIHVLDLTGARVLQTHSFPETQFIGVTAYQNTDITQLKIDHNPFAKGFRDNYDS
# Assay: PBM E-score of 8-mer (E-score (dimensionless, -0.5 to 0.5)); Tbr is Tbrain of the sea star Patiria miniata (Pm) or the sea urchin Strongylocentrotus purpuratus (Sp); higher = stronger binding preference; most listed sequences are background and not binding sites
# Details: the construct has about 5 more residues each side
# Method in brief: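 Each ungapped 8-mer received an enrichment E-score from the Universal PBM Analysis Suite, averaged over duplicate arrays. The proteins were Tbr T-box DNA-binding domains, covering the whole T-box plus about five flanking residues, fused to GST and expressed in BL21 E. coli at 20 °C before glutathione affinity purification. Universal Agilent oligonucleotide arrays were made double-stranded by primer extension and incubated with 200 nM protein in PBS (pH 7.5). The arrays were then scanned and quantified, and every 8-mer was scored from probe intensities.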
row,Sequence,PBM E-score of 8-mer
1,CCGAATGA,-0.178 ± 0.031
2,CGGCGCAC,-0.00796 ± 0.085
3,AGCCTCAC,0.0896 ± 0.045
4,GCGCCCCC,-0.0736 ± 0.063
5,CCGTCGAG,-0.102 ± 0.072
6,ATTTTGCG,0.1628 ± 0.0003
7,AAATAATT,0.0108 ± 0.052
8,AAGGGTTA,-0.066 ± 0.037
9,AATATCGA,-0.0471 ± 0.064
10,GTTAAGTA,0.105 ± 0.048
11,CTCATATA,-0.0937 ± 0.018
12,CGCATCCC,-0.0665 ± 0.014
13,AAACTATT,-0.168 ± 0.02
14,GATCCGGC,-0.0877 ± 0.02
15,CACGGGAG,-0.12 ± 0.028
16,CAGCCGAA,-0.286 ± 0.021
17,ACGGGCCT,-0.236 ± 0.081
18,CGCCGGTA,0.028 ± 0.015
19,CGCGAAAC,0.355 ± 0.0087
20,CGTACGTA,-0.0915 ± 0.031
21,AGCGCAGA,-0.0321 ± 0.09
22,GCATTCCA,-0.1998 ± 0.00052
23,AAAACTAA,-0.0943 ± 0.15
24,ATGGTGAA,-0.0499 ± 0.014
25,CTGATGCA,0.0307 ± 0.013

row,Sequence,PBM E-score of 8-mer
1,ATGAATCC,-0.0157 ± 0.057
2,ATCTTTAG,-0.00456 ± 0.01
3,CGTCCTGC,-0.174 ± 0.025
4,CGATGACC,-0.0309 ± 0.049
5,ACAGCGAT,-0.09441 ± 0.00073
6,CCACTCGG,0.0588 ± 0.016
7,TATACGCA,0.0101 ± 0.039
8,AGTCGCGC,0.248 ± 0.013
9,CCGATGAC,-0.0168 ± 0.02
10,ATTCCGCC,-0.0779 ± 0.068
11,CAAACAGA,-0.178 ± 0.024
12,ACCAATTC,0.134 ± 0.035
13,CGGCTCCA,-0.101 ± 0.0089
14,CCAGTGCG,0.133 ± 0.074
15,CATGTTGC,0.104 ± 0.014
16,ATCTAGGA,-0.157 ± 0.038
17,ATGATAAG,-0.0825 ± 0.014
18,AATAAGGT,0.0297 ± 0.12
19,ACAAGCGT,0.127 ± 0.046
20,ACCACTTA,0.00984 ± 0.039
21,GCAGGAGA,-0.053 ± 0.049
22,CAGGTCGG,0.0808 ± 0.078
23,GACCCAGC,-0.136 ± 0.072
24,CTTATTGA,-0.2758 ± 0.00037
25,CTATCCGC,-0.0974 ± 0.013

row,Sequence,PBM E-score of 8-mer
1,ATACTACG,-0.142 ± 0.039
2,AGCGGGCG,0.00662 ± 0.1
3,CAGCCATC,-0.011 ± 0.025
4,GCGTCTAC,0.0177 ± 0.037
5,ACCCGTAT,0.0722 ± 0.14
6,AGATTCTA,-0.144 ± 0.0051
7,AATTAAAC,-0.047 ± 0.035
8,CAAAGTAC,-0.103 ± 0.0023
9,CACGAATA,0.153 ± 0.016
10,GCAAGGAA,0.0687 ± 0.034
11,AGGCTTAG,-0.2567 ± 0.0017
12,ACTACCAT,-0.115 ± 0.0048
13,ACTAGGGA,-0.0129 ± 0.068
14,AGATGGGC,-0.148 ± 0.035
15,TAGTAATA,-0.152 ± 0.009
16,AAGCTTAT,-0.174 ± 0.015
17,AAGAGACT,-0.173 ± 0.024
18,CCATTCGG,-0.226 ± 0.014
19,AACAACAC,0.363 ± 0.01
20,CTCGGTAA,-0.0921 ± 0.015
21,AGATATCT,-0.236 ± 0.18
22,CGAAACCA,0.111 ± 0.049
23,ACCGATAT,-0.122 ± 0.061
24,CATCAATA,-0.168 ± 0.0056
25,AACATTAC,-0.0619 ± 0.043

row,Sequence,PBM E-score of 8-mer
1,ACAAACGC,0.0515 ± 0.0056
2,CGAACCCG,-0.0788 ± 0.0037
3,CAATAGGA,-0.278 ± 0.016
4,ACGCCGAA,-0.108 ± 0.053
5,ACACCAAT,0.3 ± 0.022
6,CCTCCGGC,-0.113 ± 0.046
7,ACCAGGAT,-0.103 ± 0.029
8,TCCTGACA,0.2143 ± 0.0011
9,CTATATGA,-0.151 ± 0.043
10,CCTCTACG,-0.092 ± 0.013
11,GCAGATCA,-0.11 ± 0.1
12,CAAGTGCA,0.182 ± 0.032
13,ATCGTATA,-0.0338 ± 0.026
14,AATTACAC,0.214 ± 0.044
15,ATTATAGG,-0.19 ± 0.026
16,AAACCAAC,-0.0437 ± 0.062
17,ACTGACCA,-0.226 ± 0.004
18,ATGGCGGC,-0.0741 ± 0.043
19,GCAATTAC,-0.103 ± 0.055
20,TAATCAAA,-0.12 ± 0.073
21,AAACCTAT,-0.135 ± 0.14
22,CAATAAGG,-0.0186 ± 0.041
23,AGGCAACA,0.0862 ± 0.017
24,AGGCGGAA,-0.0735 ± 0.055
25,GGGCGGTA,-0.15 ± 0.0098

row,Sequence,PBM E-score of 8-mer
1,TCGCACAA,0.295 ± 0.028
2,ATACATTG,-0.0781 ± 0.031
3,ATGTAGGC,-0.228 ± 0.053
4,CGAATTAG,-0.0256 ± 0.075
5,GCGGACTA,-0.173 ± 0.0084
6,GGGTATAC,-0.101 ± 0.011
7,CACCTTCG,0.431 ± 0.02
8,TCGCTGAA,-0.0277 ± 0.0086
9,CTACTTCA,0.0974 ± 0.028
10,CGCACCAC,0.178 ± 0.13
11,ATAAGTGG,0.124 ± 0.042
12,AACGTGCG,0.345 ± 0.029
13,ATTCAGGC,-0.0507 ± 0.07
14,CCAACCCA,-0.109 ± 0.035
15,ACGACCAT,0.0077 ± 0.062
16,CCACGGTC,-0.159 ± 0.084
17,GGCGCTAC,0.346 ± 0.037
18,AAAGGCGA,0.183 ± 0.044
19,CGGATCGA,-0.251 ± 0.053
20,ACACGGTG,0.178 ± 0.052
21,GTGCATCA,0.0214 ± 0.0025
22,AGAGCGTC,0.0543 ± 0.0068
23,GGCAGCTA,0.0117 ± 0.024
24,AGGTCAAT,-0.29 ± 0.046
25,CTATATAA,-0.113 ± 0.12

row,Sequence,PBM E-score of 8-mer
1,CAGCCAAC,0.0678 ± 0.047
2,CGGACCCA,-0.155 ± 0.065
3,AATATTCT,-0.1266 ± 0.0006
4,CAGAACTG,-0.226 ± 0.067
5,AGCGGTAT,-0.0667 ± 0.0017
6,AAGGCAGG,-0.215 ± 0.0042
7,AACGTGAG,0.19 ± 0.016
8,GGTTGAGA,0.0018 ± 0.085
9,ACTGTACA,-0.0159 ± 0.089
10,TAAAAAAA,0.0906 ± 0.087
11,CGCCGACA,0.252 ± 0.043
12,CACGCCGC,0.176 ± 0.045
13,AGCGTGTC,0.174 ± 0.034
14,TATCTGGA,-0.0142 ± 0.027
15,ACTTCTAC,0.128 ± 0.013
16,ACGGCTTG,-0.0273 ± 0.0036
17,CGGTGTGC,0 ± 0.12
18,ATTCCTAG,-0.2231 ± 0.001
19,CAATGAGC,0.0125 ± 0.026
20,AAGTCATT,-0.0342 ± 0.057
21,AGAGGTAG,-0.165 ± 0.011
22,TATAAAAA,-0.165 ± 0.13
23,CGAGCCCA,-0.168 ± 0.016
24,AGTCGCCC,0.00515 ± 0.0088
25,ACCGCTAC,0.0113 ± 0.11

row,Sequence,PBM E-score of 8-mer
1,CGGCGTCC,-0.226 ± 0.084
2,GTAAAACA,-0.0678 ± 0.083
3,AGTAGTTA,-0.142 ± 0.091
4,CTCGAGAA,-0.0318 ± 0.016
5,CGCTATGA,0.0752 ± 0.0096
6,ATGCTAGG,-0.201 ± 0.095
7,AGTCGGAT,-0.205 ± 0.043
8,CGGCATCA,0.00958 ± 0.091
9,GCTGGTAA,-0.161 ± 0.017
10,ATAAGGAT,-0.0432 ± 0.072
11,CGTAATGA,-0.119 ± 0.046
12,CTTGAAGA,-0.137 ± 0.072
13,ACAGCTTA,0.0809 ± 0.017
14,ACTATACA,-0.134 ± 0.063
15,TAATATGA,0.0089 ± 0.083
16,CGAGGGTA,-0.214 ± 0.024
17,TGATCCAA,0.0657 ± 0.0028
18,AAGTGGCC,-0.122 ± 0.043
19,ATTGCGTA,-0.275 ± 0.013
20,AATGACGT,-0.0358 ± 0.064
21,ATAGCTAT,-0.243 ± 0.036
22,CATCCGCG,0.0749 ± 0.033
